US20240092867A1 (UNIVERSITY OF CHICAGO, published 2024)

What was measured:
Assay in all cases: ELISA, GF coated, laminin 10 nM
[1] = biological target: T1, laminin-421 (human, UniProt Q16363 25-1823; P55268 33-1798; P11047 34-1609)
T1 construct: Full-length recombinant human laminin isoform (BioLamina); chains read from the isoform name
Description: (§1) ELISA tests were performed as previously reported. In brief, ELISA plates (med-binding, Greiner Bio-One) were coated with 50 nM GFs at 37° C. for more than 2 hrs. […] Bound laminin was detected with rabbit anti-human laminin γ1 chain antibody (1:1000 dilution, Assay biotech) or rabbit anti-human laminin α3 chain antibody (1:1000 dilution, Assay biotech). After incubation with biotinylated anti-rabbit antibody for 60 min at room temperature (RT), HRP conjugated streptavidin (Jackson ImmunoResearch) was added. After 60 min of incubation at RT, 50 μL TMB substrate (Sigma-Aldrich) was added. The reactions were stopped by adding 25 μL of 2 N H₂SO₄. Subsequently, the absorbance at 450 nm was measured with a reference of 570 nm.

[2] = biological target: T2, laminin-521 (human, UniProt O15230 36-3695; P55268 33-1798; P11047 34-1609)
T2 construct: Full-length recombinant human laminin isoform (BioLamina); chains read from the isoform name
Description: as §1

[3] = biological target: T3, laminin-411 (human, UniProt Q16363 25-1823; P07942 22-1786; P11047 34-1609)
T3 construct: Full-length recombinant human laminin isoform (BioLamina); chains read from the isoform name
Description: as §1

[4] = biological target: T4, laminin-111 (human, UniProt P25391 18-3075; P07942 22-1786; P11047 34-1609)
T4 construct: Full-length recombinant human laminin isoform (BioLamina); Chain composition is read from the isoform name
Description: as §1

[5] = biological target: T5, laminin-211 (human, UniProt P24043 23-3122; P07942 22-1786; P11047 34-1609)
T5 construct: Full-length recombinant human laminin isoform (BioLamina); chains read from the isoform name
Description: as §1

[6] = biological target: T6, laminin-511 (human, UniProt O15230 36-3695; P07942 22-1786; P11047 34-1609)
T6 construct: Full-length recombinant human laminin isoform (BioLamina); chains read from the isoform name
Description: as §1

Measured: binding result

B1: CXCL-12γ (ligand)
chain: not shown
notes: mature
binds: all assays above
